The campaign covered roughly 310,000 compounds. About 2,200 (0.71%) showed an effect of 50% or more. The effect is printed as a negative number. The list shows a part of the results.
Target: human ether-à-go-go-related gene (hERG) potassium channel (human, UniProt Q12809)
Test: primary screen, population patch clamp on CHO cells stably expressing hERG

Chain of human ether-à-go-go-related gene (hERG) potassium channel (Q12809 whole entry, looked up): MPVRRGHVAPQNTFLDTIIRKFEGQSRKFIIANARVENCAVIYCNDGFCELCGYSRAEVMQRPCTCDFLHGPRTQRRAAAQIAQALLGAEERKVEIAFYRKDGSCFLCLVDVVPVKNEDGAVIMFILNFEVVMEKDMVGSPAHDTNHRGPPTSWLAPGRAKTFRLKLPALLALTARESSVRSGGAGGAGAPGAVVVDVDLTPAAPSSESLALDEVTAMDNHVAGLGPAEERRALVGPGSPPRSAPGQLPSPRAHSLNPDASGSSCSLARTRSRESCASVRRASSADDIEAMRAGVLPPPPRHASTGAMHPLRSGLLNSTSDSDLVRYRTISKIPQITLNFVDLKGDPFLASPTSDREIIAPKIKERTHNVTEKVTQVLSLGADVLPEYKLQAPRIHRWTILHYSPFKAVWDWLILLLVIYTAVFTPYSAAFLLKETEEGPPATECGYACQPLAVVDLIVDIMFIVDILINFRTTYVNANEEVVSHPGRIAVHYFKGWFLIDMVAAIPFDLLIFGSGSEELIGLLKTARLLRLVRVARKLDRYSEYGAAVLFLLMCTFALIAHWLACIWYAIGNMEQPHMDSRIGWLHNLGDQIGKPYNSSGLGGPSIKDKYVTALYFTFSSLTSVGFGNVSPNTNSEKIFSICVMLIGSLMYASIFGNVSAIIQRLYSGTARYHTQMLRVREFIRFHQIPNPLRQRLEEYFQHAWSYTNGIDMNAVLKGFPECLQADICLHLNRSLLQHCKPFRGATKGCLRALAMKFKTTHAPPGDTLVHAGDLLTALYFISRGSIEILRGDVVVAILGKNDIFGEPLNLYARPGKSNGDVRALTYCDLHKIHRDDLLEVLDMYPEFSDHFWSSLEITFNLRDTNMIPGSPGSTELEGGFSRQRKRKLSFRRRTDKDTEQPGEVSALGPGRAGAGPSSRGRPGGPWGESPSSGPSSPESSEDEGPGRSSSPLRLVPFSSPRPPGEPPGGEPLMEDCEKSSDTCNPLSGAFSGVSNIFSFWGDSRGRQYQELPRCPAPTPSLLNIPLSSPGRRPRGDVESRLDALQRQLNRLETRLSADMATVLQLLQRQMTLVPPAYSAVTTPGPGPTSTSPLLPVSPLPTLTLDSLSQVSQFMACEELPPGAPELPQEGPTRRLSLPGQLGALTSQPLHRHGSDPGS

Row | SMILES | hERG current change (%, negative = inhibition) at 1uM [%]
1 | O=S(=O)(Cc1ccccc1)N1CCN(C2Cc3ccccc3C2)CC1 | 5.02
2 | Clc1ccc2c(NCc3ccco3)ncnc2c1 | -1.55
3 | COc1cc(OC)c2c(c1)O[C@@H](c1ccc(OC)c(OC)c1)[C@H](O)C2 | 13.2
4 | COc1ccccc1N1CCN(C(=O)COc2cccc(C)c2C)CC1 | 2.97
5 | O=C(Nc1cccc(C(F)(F)F)c1)N1CCC(c2nc(-c3ccc(F)cc3)no2)CC1 | 2.11
6 | O=C(Nc1ccc(C(F)(F)F)cc1)c1cc(-c2cccnc2)nc2ccc(Br)cc12 | -15.5
7 | CN(C(=O)CN(C)S(=O)(=O)c1ccc(F)cc1)c1c(N)n(Cc2ccccc2)c(=O)[nH]c1=O | -4.29
8 | O=C(c1cc2ccccc2cc1O)N1CCN(c2ccc([N+](=O)[O-])cc2)CC1 | -15.1
9 | CSc1nc(=S)cc(C)[nH]1 | 8.94
10 | CCCCOc1ccc(S(=O)(=O)NC(=O)NCc2ccc(OCCC)cc2)cc1 | 8.73
11 | CCCCn1c(=O)[nH]c(=O)c2c(C(=O)OCC)cc(-c3ccc(OC(F)F)cc3)nc21 | 11.4
12 | COc1ccc(NC(=O)C2CCCN2C(=O)Nc2cccc(F)c2)cc1 (stereo not drawn) | 5.88
13 | CN(C)C(=O)COC(=O)c1cccc(CN2C(=O)c3ccccc3C2=O)c1 | 16.5
14 | Cc1cc(OC(C)C(=O)NCc2ccccn2)c2c(C)cc(=O)oc2c1 (stereo not drawn) | 16.2
15 | COc1ccccc1C(=O)Nc1ccnn1C1CCN(C/C=C/c2ccccc2)CC1 | -85.6
16 | COc1ccccc1C(=O)NC(CCSC)C(=O)N1CCN(C(C)=O)CC1 (stereo not drawn) | 11.3
17 | O=C(NCc1ccccn1)c1ccc(NS(=O)(=O)c2ccccc2)cc1 | 1.45
18 | CC(C)N(C(=O)CN1CCN(S(=O)(=O)c2ccc(Br)s2)CC1)C(C)C | 7.73
19 | O=C(OC(C(=O)c1c[nH]c2ccccc12)c1ccccc1)c1cnccn1 (stereo not drawn) | 11.8
20 | COc1ccccc1NS(=O)(=O)c1cc(NC(=O)CCNC(C)=O)ccc1N1CCCCC1 | 7.37
21 | COC(=O)c1sc2cnccc2c1N | 10.7
22 | O=C(NCc1ccccc1C(F)(F)F)C1CCC(=O)N(CCCc2ccccc2)C1 (stereo not drawn) | 7.23

Row | SMILES | hERG current change (%, negative = inhibition) at 1uM [%]
23 | COC(=O)c1cc(Br)c(=O)n(-c2ccccn2)c1 | 12.5
24 | CCOc1ccc(NC(=O)CN(C)C(=O)c2cc3c(s2)CCCCC3)cc1OCC | 17.5
25 | Cc1ccc(NC(=O)CSc2nc3ccccc3c(=O)n2CCCN2CCCCC2)cc1Cl | -29.6
26 | COc1ccc([C@H]2C=C3CN(C(=O)OC(C)(C)C)S(=O)(=O)[C@H]3C[C@H]2OC(=O)c2ccc(C(F)(F)F)cc2)cc1 | 9.57
27 | CCCn1nc(NC(=O)C2CCCO2)c2cc3cc(C)ccc3nc21 (stereo not drawn) | 10.2
28 | COc1ccc(CNc2ccc(C)c(C)c2)cc1 | 7.13
29 | O=C(NCCN1CCN(C(=O)c2cccs2)CC1)c1cccs1 | -8.64
30 | CCN1CCN(c2ccc(NC(=O)c3cc(S(=O)(=O)N4CCCC4)ccc3Cl)cc2)CC1 | -10.2
31 | O=C(CSCc1ccc(Cl)cc1)N1CCOCC1 | 10.3
32 | O=C(CCCCCN1C(=O)c2cccc3cccc(c23)C1=O)N1CCOCC1 | 3.08
33 | COC(=O)c1ccc2[nH]c3c(c2c1)CC(C)CC3 (stereo not drawn) | 18.2
34 | O=C(CSc1nc(-c2ccccc2)cc(C(F)(F)F)n1)NCc1cccs1 | 14.5
35 | Cc1ccc(NC(=O)CCNS(=O)(=O)c2cccc3nsnc23)cc1 | 5.86
36 | CC(=O)Nc1nonc1NC(=O)c1ccc(F)cc1 | 24.6
37 | CCN1CCCn2c1nc1c2c(=O)n(C)c(=O)n1C | 7.15
38 | O=c1c2c3c(sc2nc2n1CCCCC2)C(O)CCC3 (stereo not drawn) | 5.61
39 | Cc1cc(-c2cc(C(=O)NC3CCCC3)on2)nc(NCC2CC2)n1 | 11
40 | Cn1c(=O)c2c(nc(NC(Cc3ccccc3)C(=O)O)n2Cc2ccccc2)n(C)c1=O (stereo not drawn) | 5.44
41 | COc1ccc(Nc2nc(N)nc(CSCCO)n2)cc1 | -2.77
42 | COC(=O)CN(c1ccccc1)S(=O)(=O)c1cc(Br)ccc1OC | 9.19
43 | CCOCCCNC(=O)c1cc(=O)n(Cc2cccc(C)c2)c2ccccc12 | 5.29
44 | O=C(OCN1C(=O)c2ccccc2C1=O)c1cccs1 | 16

Row | SMILES | hERG current change (%, negative = inhibition) at 1uM [%]
45 | COc1ccc(OC)c(NC(=O)CSc2nnc(-c3cnccn3)n2C)c1 | 8.8
46 | COc1cccc(C(=O)N2CCC(C(=O)NCc3ccco3)CC2)c1 | -43.2
47 | Cc1ccc(-c2c(C)sc3nc(CN4CCN(CC(=O)NC5CC5)CC4)[nH]c(=O)c23)cc1 | -12.7
48 | Cc1cc(=O)n2[nH]c(C)c(-c3ccccc3)c2n1 | 12.5
49 | OCCCn1c(CCNc2nc(-c3ccc(Cl)cc3)cs2)nc2cc(C(F)(F)F)ccc21 | 10.9
50 | O=c1[nH]c2ccc(Cl)cc2c(-c2ccccc2)c1N1CCN(c2ccccn2)CC1 | 11.9
51 | Cc1ccc(S(=O)(=O)Oc2ccc(/C=N/NC(=O)c3nn(C)cc3Cl)cc2)cc1 | 6.53
52 | C=CCN(C(=O)CCc1ccccc1OC)c1nc(-c2ccc(S(C)(=O)=O)cc2)cs1 | 11.6
53 | CC(C)C(C)NC(=O)COC(=O)c1cc(S(=O)(=O)N(C)C)ccc1N1CCCC1 (stereo not drawn) | 13
54 | COc1ccc(/C=N/NC(=O)C2C3CCCCC32)cc1OC (stereo not drawn) | 9.38
55 | COc1cccc(C(C(=O)NC(C)(C)C)N(CCc2ccccc2)C(=O)CCC(=O)Nc2cc(C)on2)c1OC (stereo not drawn) | 11.8
56 | COc1ccc(NC(=O)CSc2n[nH]c(C)c2[N+](=O)[O-])cc1 | 10.8
57 | O=C(CCN1C(=O)c2ccc([N+](=O)[O-])cc2C1=O)Nc1cccc(O)c1 | 11
58 | CCCCOc1ccc(NC(=O)C(=O)NCCC2=CCCCC2)cc1 | 9.57
59 | CCC(=O)Nc1cccc(-c2cn3ccsc3n2)c1 | 15.1
60 | COc1ccccc1CNC(=O)CN1C(=O)c2ccc([N+](=O)[O-])cc2C1=O | 12.4
61 | COc1cc(NC(=O)c2ccccc2-c2ccccc2)cc(OC)c1 | -8.83
62 | O=C(c1ccco1)N(Cc1ccco1)c1ccc(O)cc1 | 16.5
63 | COC(=O)C1CN(C(=O)COc2ccccc2C)c2ccccc2O1 (stereo not drawn) | 10.4
64 | Cc1ccc(C2SCC(C(=O)O)N2C(=O)c2ccc(F)cc2)cc1 (stereo not drawn) | 8.81
65 | Cc1c(Cl)cccc1NC(=O)C1CCN(S(C)(=O)=O)CC1 | 6.36
66 | C[C@@]12C(=O)Nc3ccccc3C(=O)N1[C@H]1c3cc(Br)ccc3OC[C@@H]1[C@@H]2c1ccccc1 | 6.95

Row | SMILES | hERG current change (%, negative = inhibition) at 1uM [%]
67 | CCOC(=O)N1CCN(S(=O)(=O)c2ccc(OC)c(OC)c2)CC1 | -11.4
68 | COc1cccc(CN2CCN(Cc3ccc(C)o3)CC2CCO)c1 (stereo not drawn) | 1.05
69 | Cc1cc(C)n2nc(C(=O)Nc3c(C)nn(Cc4ccc(F)cc4)c3C)cc2n1 | 12
70 | CCc1nn(CC(=O)NCCN2CCOCC2)c(=O)c2cc3c(OC)cccc3n12 | 11.9
71 | CCCNC1=C(C)C(=O)CC1 | 15.9
72 | Cn1ncc(Cl)c(Oc2ccc(C(C)(C)C)cc2)c1=O | 11.3
73 | NC(=O)CSc1nnc(SCc2ccc(F)cc2)s1 | 7.37
74 | CCC(C)n1c(=O)c(C(=O)Nc2ccccc2S(N)(=O)=O)c(O)c2ccccc21 (stereo not drawn) | 8.97
75 | O=C(O)c1ccc(NS(=O)(=O)c2cc(Cl)sc2Cl)cc1 | 16.5
76 | COc1cc(C(=O)NCCC2=CCCCC2)ccc1OC1CCN(C(C)=O)CC1 | 16.8
77 | Cc1cc(C)c(NC(=O)CN2CCN(c3ccccn3)CC2)c(C)c1 | 10.9
78 | Nc1c(Cl)c(Cl)nc(C(=O)N/N=C/c2ccco2)c1Cl | 13.3
79 | CCc1ccc(NC2=CC(=O)CC(c3ccco3)C2)cc1 (stereo not drawn) | 12.9
80 | CC(Sc1nncn1C)C(=O)NCc1ccc2c(c1)OCO2 (stereo not drawn) | 21
81 | NS(=O)(=O)c1ccc(NC(=S)NCc2ccc3c(c2)OCO3)cc1 | 16.4
82 | Clc1ccc(OCc2nnnn2-c2ccccc2)cc1 | 4.02
83 | COc1cc(OC)c(NC(=O)CN(C)S(=O)(=O)c2ccc(-c3ccc(=O)[nH]n3)s2)cc1Cl | 5.27
84 | COC(=O)C1=CO[C@@H](O[C@@H]2O[C@H](CO)[C@@H](O)[C@H](O)[C@H]2O)[C@H]2[C@@H]1C(=O)C[C@@H]2C | 9.74
85 | CC1CN(C(=S)NC(=O)C2CCCCC2)CC(C)O1 (stereo not drawn) | 8.75
86 | CCCc1nnc(NC(=O)C23CC4CC(CC(C4)C2)C3)s1 | 11.8
87 | O=C(NCC1(N2CCCCC2)CCCCC1)c1ccc(S(=O)(=O)N2CCCC2)cc1 | -5.87

Source: article PMC4336329 (PLoS ONE, 2015)
